# Source: the supplement of paper PMC11125491
# ± gives the standard deviation of the averaged measurements. Growth of baker's yeast expressing single-residue variants of Pneumocystis jirovecii dihydrofolate reductase in 8.8 or 44 µM methotrexate (about 75% and 90% inhibition of the wild type). Selection coefficient per generation; 0 = like wild type, above 0 = less sensitive, below 0 = more sensitive or loss of function. No active / inactive call per row; the paper calls resistant above 0.220 (8.8 µM) or 0.243 (44 µM) together with a significance test. At 44 µM about 15% of codons end with one read or none, so the lowest values are floors (replicate rank correlation 0.74; 0.94 at 8.8 µM).
# B1: UniProt A0EPZ9; numbered along this chain (parent)
# chain: MDWQKSLTLIVALTLSRGIGLKNDLPWKLKSDMMFFSRVTSGLLVTRSTGQMNVVLMGRKTWESLPAHSRPLKNRINVVISRQEVLDLGGGAYHARSLDDALALLSQIYDSTSKIQLNRVFVIGGGELCKAAMEHSRLNRIIATVIHNEVDCDVFFPIDFRSSQSCLPWRKQDHSVLEAWVGSKVPQGKINENGFIYEFEMWIRDI
# Variants of: B1
# Experiment: selection coefficient against synonymous wild-type codons (log2 per generation); higher = faster growth than wild type
# Conditions: with Saccharomyces cerevisiae carrying the variant on a plasmid
# Experimental: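 Pooled growth of yeast carrying single-residue variants of P. jirovecii dihydrofolate reductase (own DFR1 gene intact), two passages at 30 °C, three cultures, sequenced before and after. Codons with under 15 starting reads are left out; codons of one change are averaged.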
Variant,selection coefficient against synonymous wild-type codons (log2) (methotrexate 8.8 µM),selection coefficient against synonymous wild-type codons (log2) (methotrexate 44 µM)
N74G,0.0285 ± 0.055,0.101 ± 0.12
N74H,-0.273 ± 0.087,-0.217 ± 0.061
N74I,-0.646 ± 0.071,-0.187 ± 0.065
N74K,-0.404 ± 0.0087,-0.217 ± 0.15
N74L,-0.646 ± 0.13,-0.253 ± 0.098
N74M,-0.418 ± 0.083,-0.0907 ± 0.18
N74P,-0.524 ± 0.097,-0.0448 ± 0.061
N74Q,-0.35 ± 0.017,-0.33 ± 0.043
N74R,-0.481 ± 0.16,-0.212 ± 0.064
N74S,-0.335 ± 0.061,-0.182 ± 0.11
N74T,-0.542 ± 0.18,-0.181 ± 0.12
N74V,-0.706 ± 0.11,-0.0554 ± 0.44
N74W,-0.666 ± 0.12,-0.206 ± 0.078
N74Y,-0.371 ± 0.21,-0.0282 ± 0.074
R75A,-0.37 ± 0.087,-0.0894 ± 0.074
R75C,-0.0968 ± 0.059,0.085 ± 0.017
R75D,-0.61 ± 0.033,-0.108 ± 0.044
R75E,-0.57 ± 0.2,-0.319 ± 0.04
R75F,-0.605 ± 0.08,-0.146 ± 0.042
R75G,-0.515 ± 0.32,-0.183 ± 0.29
R75H,-0.721 ± 0.038,-0.261 ± 0.027
R75I,-0.494 ± 0.089,-0.00194 ± 0.14
R75K,0.137 ± 0.043,0.229 ± 0.11
R75L,-0.401 ± 0.08,-0.165 ± 0.13
R75M,-0.505 ± 0.074,-0.107 ± 0.094
R75N,-0.468 ± 0.017,-0.14 ± 0.17
R75P,-0.518 ± 0.12,-0.0726 ± 0.073
R75Q,-0.647 ± 0.13,-0.274 ± 0.12
R75S,-0.347 ± 0.1,-0.147 ± 0.12
